# Source: paper PMC6919601, “Identification of Plasmodium dipeptidyl aminopeptidase allosteric inhibitors by high throughput screening” (PLoS ONE, 2019)
# “And” between values parts separate entries of the source, which are not always exact repeats. Equal entries are not always repeated. The whole screen tested about 110,000 compounds, of which about 230 (0.21%) showed an effect of 50% or more. The list shows a part of the results.
# Target: DPAP1 (Plasmodium falciparum, UniProt Q8IIJ9)
# Experiment: primary screen, percent inhibition; read by cleavage of a fluorogenic dipeptide substrate; higher = more effect of the substance
# Design: species or system P. falciparum D10 trophozoite lysates; single well
# 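Also: 30 min substrate incubation versus DMSO and 10 µM JCP410 controls.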
# Sequence of DPAP1 (Q8IIJ9 whole entry, looked up): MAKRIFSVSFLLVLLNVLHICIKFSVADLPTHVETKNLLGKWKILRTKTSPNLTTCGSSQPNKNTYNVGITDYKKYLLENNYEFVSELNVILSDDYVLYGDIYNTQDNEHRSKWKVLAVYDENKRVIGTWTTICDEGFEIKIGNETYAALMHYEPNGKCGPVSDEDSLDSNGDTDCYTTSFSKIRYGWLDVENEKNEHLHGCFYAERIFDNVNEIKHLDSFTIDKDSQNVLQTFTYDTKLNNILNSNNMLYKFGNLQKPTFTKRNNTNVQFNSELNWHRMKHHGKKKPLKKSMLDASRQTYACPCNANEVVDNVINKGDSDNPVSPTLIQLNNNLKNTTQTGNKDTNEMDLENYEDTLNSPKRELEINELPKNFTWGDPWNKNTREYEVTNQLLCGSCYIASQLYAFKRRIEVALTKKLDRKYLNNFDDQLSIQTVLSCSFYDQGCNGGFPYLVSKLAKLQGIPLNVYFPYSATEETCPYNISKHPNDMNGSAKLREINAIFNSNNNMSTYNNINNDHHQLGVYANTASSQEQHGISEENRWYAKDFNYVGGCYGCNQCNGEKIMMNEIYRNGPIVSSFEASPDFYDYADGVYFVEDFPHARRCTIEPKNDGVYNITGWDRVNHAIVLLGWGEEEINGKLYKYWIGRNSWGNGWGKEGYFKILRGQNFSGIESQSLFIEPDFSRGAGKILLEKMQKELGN
row,Structure (SMILES),% Inhibition @ 10 uM
1,COc1ccc(C2C(C#N)=C(N)OC3=C2C(=O)CC(C)(C)C3)cc1COc1ccc(Cl)cc1 (stereo not shown),-0.661%
2,COc1ccc(C(=O)Nc2ccc(N(C)C(C)=O)cc2)cc1,-1.96%
3,CC1CCCN(CCCNC(=O)CN2N=C(c3ccccc3)CCC2=O)C1 (stereo not shown),3.79%
4,CC(C)(C)C1CCc2c(sc(NC(=O)COc3ccccc3)c2C(N)=O)C1 (stereo not shown),0.161%
5,CCOC(=O)N1CCN(C(=O)CS(=O)(=O)Cc2nc(-c3ccccc3F)oc2C)CC1,-1.89%
6,Cc1ccc(OC(C)C(=O)Nc2ccccc2)cc1 (stereo not shown),-0.95%
7,O=[N+]([O-])c1cc2c(cc1CC1CC1(Cl)Cl)OCCO2 (stereo not shown),-0.736%
8,COc1ccc(N2CCN(C(=O)c3ccccc3N)CC2)cc1,-6.43%
9,Cc1ccc2oc(=O)n(CCOc3ccccc3Cl)c2c1,-12.5%
10,Cc1c(CN(C)C(=O)c2cc3nc(-c4ccc(Cl)cc4)cc(C(F)(F)F)n3n2)cnn1C,5.52%
11,Cc1nn(C)cc1CN(C)C(=O)c1cc2nc(-c3cccs3)cc(C(F)(F)F)n2n1,0.163%
12,CC(C)Oc1ccc(CNC(=O)Cn2ncc3ccc(Cl)cc32)cc1,5.39%
13,O=C(Nc1cc(Cl)cc(Cl)c1)C1CCCN1S(=O)(=O)c1ccc(Cl)cc1 (stereo not shown),-2.44%
14,CCCCNC(=O)c1sc2nc(-c3ccccc3)cn2c1C,-5.58%
15,CCOC(=O)C1=C(NC(=O)c2ccc(C)cc2)S/C(=C\c2ccc(OC)c(Cl)c2)C1=O,1.52%
16,Cc1ccc(C2=NS(=O)(=O)N(C)C(C(=O)NCc3cccnc3)=C2)cc1,0.655%
17,N#CC1=C(N)OC2=C(C(=O)CCC2)C1c1ccoc1 (stereo not shown),-2.51%
18,O=C(COc1ccc(Br)cc1Cl)N1CCN(c2ccccc2F)CC1,-1.63%
19,COc1ccc(CCNC(=O)c2cc(=O)c3cc(C)ccc3o2)cc1OC,0.248%
20,CCCN1CCC(NC2CCCc3ccccc32)CC1 (stereo not shown),-2.34%
21,CC(C)n1c(N2CCNCC2)nc2c1c(=O)n(C)c(=O)n2C,-3.86%
22,O=C(NC12CC3CC(CC(C3)C1)C2)C1CCCO1 (stereo not shown),1.57%
23,O=C(N/C(=C/c1cccs1)C(=O)N1CC2CC(C1)c1cccc(=O)n1C2)c1ccccc1 (stereo not shown),14.5%
24,O=C(NCc1ccc(C(=O)N2CCC3(CC2)OCCO3)cc1)c1cccc(Br)c1,-0.406%
25,COc1cc2oc(=O)c(CC(=O)N3CCOCC3)c(C)c2cc1Cl,7.17%

row,Structure (SMILES),% Inhibition @ 10 uM
1,CC1(C)CC(=O)C2=C(C1)N(c1nc[nH]n1)C(N)=C(C#N)C2c1ccccc1 (stereo not shown),-1.93%
2,COc1ccc(CCNC(=O)C2CCCN2c2nn3c(=O)cc(C)nc3s2)cc1OC (stereo not shown),1.38%
3,COC(=O)/C(=C/C(C#N)=C/N(C)C)C(C)=O,-3.15%
4,O=C(Nc1ccc(Cl)c(Cl)c1)c1cccc(Br)c1,-0.197%
5,C=CCC(Nc1ccccc1)c1ccco1 (stereo not shown),-3.14%
6,Cc1cccc(C)c1-n1ncc(C(=O)NCCc2ccsc2)c1C1CCNCC1,-0.884%
7,COCCCN1CC(=O)C(c2nc3ccccc3[nH]2)=C1N,6.78%
8,O=C1CSC2(C(=O)Nc3ccccc32)N1c1cccc(C(F)(F)F)c1 (stereo not shown),-2.24%
9,Cc1ccc2oc(O)c(C(=O)CC3CCCC3)c(=O)c2c1,-8.78%
10,COc1ccc2c(c1)c1c(c(=O)n(Cc3ccccc3)c(=O)n1CC(=O)NCc1ccco1)n2C,1.02%
11,Cc1ccccc1S(=O)(=O)Cc1ccc(C(=O)NCc2ccc(Cl)cc2)o1,1.93%
12,COc1ccc(-n2cccc2/C=C2\C(=N)N3N=C(C(C)C)SC3=NC2=O)cc1,0.208%
13,Nc1cc(-c2ccc(Br)cc2)[nH]n1,3.96%
14,O=C(O)c1ccc(CN2CCc3ccccc3C2)cc1,0.847%
15,Cn1nnnc1SCCNCc1cc(Cl)ccc1OCc1ccccc1F,-0.204%
16,COc1ccc(NS(=O)(=O)c2ccc(F)cc2)c(OC)c1,0.658%
17,Cc1ccc2onc(CNC(=O)N3CCN(C(=O)c4ccco4)CC3)c2c1,5.55%
18,Cc1c(CCC(C)C)c(=O)oc2cc(OCC(N)=O)ccc12,-2.21%
19,CCN1CCN(Cc2cccc(C(F)(F)F)c2)CC1,1.63%
20,CN1CCN(CC#CC2(O)CCCCC2)CC1,3.44%
21,CCN(CC)CCCNC(=O)c1cc2c(=O)oc3ccc(C)cc3c2s1,-0.646%
22,Cc1[nH]c2ccccc2c1CCNC(=O)c1ccccc1F,-5.23%
23,O=C(NC1=C(C(=O)c2ccccc2)N(Cc2ccccc2)S(=O)(=O)c2ccccc21)c1ccccc1,-5.1%
24,CC(=O)N1CCC2(CC1)OC(=O)C(C)=C2C(=O)N1CCN(C)CC1,-1.86%
25,Cc1c(-c2nc(-c3ccc4c(c3)OCO4)no2)nnn1-c1ccccc1C(F)(F)F,8.59%

row,Structure (SMILES),% Inhibition @ 10 uM
1,CC(NC(=O)C12CC3(C)CC(C)(CC(C)(C3)C1)C2)C(=O)O (stereo not shown),-2.45%
2,COc1cc2ncc(S(=O)(=O)c3ccccc3)c(NCc3ccc(C)cc3)c2cc1OC,-2.34%
3,CCCCCCNCc1c(F)cccc1Cl,0.658%
4,COc1ccc(CNC(=O)CCn2ccc3cc(S(=O)(=O)N4CCCC4)ccc32)cc1,3.99%
5,Cc1ccc2sc(N(CCN(C)C)C(=O)c3ccco3)nc2c1C,2.22%
6,COc1cccc(C2c3c(oc4cc(C)c(C)cc4c3=O)C(=O)N2c2ccccn2)c1 (stereo not shown),-3.13%
7,O=C(Nc1ccc(CN2CCCCC2)cc1)c1cc2ccccc2o1,-2.29%
8,O=C1/C(=C/c2ccc(F)cc2)CS/C1=C\c1ccc(F)cc1,1.76%
9,CC(C)(C)Oc1ncc(-c2cccs2)c(OC(C)(C)C)n1,0.0265%
10,COCC1=Nc2ncnn2C(c2ccc(Cl)cc2)/C1=C(/O)OC (stereo not shown),-1.62%
11,COc1ccc(Br)cc1CNC(=O)Cn1c(=O)cc(C(F)(F)F)c2c(C)nn(C)c21,-0.298%
12,COc1cccc(C2CC(=O)N=C(NC(=O)c3cccnc3)N2)c1OC (stereo not shown),-4.76%
13,COc1ccc(Cl)cc1-n1cc(-c2ccccc2)nc1SCC(=O)Nc1nccs1,2.24%
14,N#CCNC(=O)[C@@H]1CCCC[C@@H]1CSc1nc2ccccc2o1,-4.72%
15,CC(C)c1ccc(OCC(=O)Nc2ccc(S(N)(=O)=O)cc2)cc1,-1.82%
16,O=C(c1cnn2c1NC(c1ccc(Br)cc1)CC2C(F)(F)F)N1CCCCC1 (stereo not shown),-2.19%
17,N#CCNC(=O)[C@@H](CSCC1c2ccccc2-c2ccccc21)NC(=O)OCc1ccccc1,-2.02%
18,CC(NC(=O)C1CCN(c2ncnc3c2nc2n3CCCCC2)CC1)c1ccccc1 (stereo not shown),2.59%
19,c1nc(NC2CCCCC2)c2nc3n(c2n1)CCCCC3,4.68%
20,CSc1ccc(/C=C2/NC(=O)N(Cc3ccc(F)cc3)C2=O)cc1,-0.105%
21,O=C(C(c1ccccc1)N1Cc2ccccc2C1=O)N1CC=C(c2ccccc2)CC1 (stereo not shown),10.6%
22,O=C(c1cccc(C(=O)N2CCN(c3ccccc3)CC2)c1)N1CCN(c2ccccc2)CC1,1.87%
23,Cc1nc(Nc2ccccn2)sc1-c1ccccc1,-4.42%
24,COc1ccc2[nH]c(-c3ccccc3)nc2c1,-7.87% and -0.216%
25,COc1cccc(C2C(C#N)=C(N)Oc3[nH]nc(C)c32)c1OCc1ccccc1Cl (stereo not shown),4.67%

row,Structure (SMILES),% Inhibition @ 10 uM
1,CCN(CC)CC(=O)Nc1csc2nc(C)cc(C)c12,-1.82%
2,CCN(CCCNC(=O)c1cc(-c2ccccc2)c(N2CCOCC2)s1)Cc1ccccc1,-8.04%
3,Cc1nn2c(=O)c3c4c(sc3nc2n(-c2ccccc2)c1=O)COC(C)(C)C4,-4.15%
4,COc1ccc(C(=O)NC(C)C(c2cccs2)N2CCN(C)CC2)cc1 (stereo not shown),-1.08%
5,CC1(C(=O)O)C2CCCCC2=C2CCCCC2C1C(=O)O (stereo not shown),-0.216%
6,CCN(CC)CCCOC(=O)c1ccc(O)c(OC)c1,-7.15%
7,O=C(Cn1nnc(-c2cccs2)n1)N1CCOCC1,-3.34%
8,C[C@@H](C[C@H](NC(=O)c1ccc(-c2ccccc2Cl)cc1)C(=O)N[C@H](/C=C/S(=O)(=O)c1ccccc1)CCc1ccc(O)cc1)c1ccccc1,2.87%
9,COc1ccc(CN2CCN(c3ccc(F)cc3)CC2)c(OC)c1,-3.56%
10,CCCOC(=O)c1ccc(OCC(O)Cn2c(C)nc3ccccc32)cc1 (stereo not shown),-2.91%
11,N#CC1=C(N)Oc2cc(O)ccc2C1c1ccccc1C(F)(F)F (stereo not shown),1.4%
12,O=C1CC(C(=O)N(c2ccccc2)c2ccccc2)C(c2ccccc2)O1 (stereo not shown),0.716%
13,Cc1ccc(C(=O)N/C(=C\c2ccco2)C(=O)NCCN2CCCCC2)cc1C,-3.06%
14,N#Cc1cc2c(nc1SCC(=O)Nc1ccc(S(=O)(=O)Nc3nccs3)cc1)CCCCC2,2.36%
15,COCCNC(=O)c1cc2c(-c3ccccc3F)nn(C)c2s1,-3.23%
16,COCC(C)NCc1ccc(F)cc1 (stereo not shown),5.04%
17,CCN(CC)CCCNC(=O)C1CCCN(c2nnc(C)c3c(C)n(-c4ccc(Cl)cc4)nc23)C1 (stereo not shown),6%
18,CCOc1ccc(CNCc2c(C(=O)O)n(Cc3ccccc3C)c3cc(OC)ccc23)cc1,-3.46%
19,O=C(CSC1=NC(=O)C(Cc2ccccc2)C(=O)N1)Nc1ncccn1 (stereo not shown),-4.6%
20,Oc1c(Br)cc(CN2CCCCC2)c2cccnc12,-3.09%
21,O=C1CC(c2nc3cc4ccccc4cc3[nH]2)CN1c1ccc(Cl)cc1 (stereo not shown),-2.8%
22,O=C(NCc1ccc(F)cc1)C(Cc1ccccc1)n1cccc1 (stereo not shown),-0.692%
